The results in this text go back to paper PMC4964934.

Amino acid sequences for entries named in this document (tags omitted). A change or cut given only in a name is not applied to a line headed by its entry. Residues count along the entry.
UniProt Q9Z2D7: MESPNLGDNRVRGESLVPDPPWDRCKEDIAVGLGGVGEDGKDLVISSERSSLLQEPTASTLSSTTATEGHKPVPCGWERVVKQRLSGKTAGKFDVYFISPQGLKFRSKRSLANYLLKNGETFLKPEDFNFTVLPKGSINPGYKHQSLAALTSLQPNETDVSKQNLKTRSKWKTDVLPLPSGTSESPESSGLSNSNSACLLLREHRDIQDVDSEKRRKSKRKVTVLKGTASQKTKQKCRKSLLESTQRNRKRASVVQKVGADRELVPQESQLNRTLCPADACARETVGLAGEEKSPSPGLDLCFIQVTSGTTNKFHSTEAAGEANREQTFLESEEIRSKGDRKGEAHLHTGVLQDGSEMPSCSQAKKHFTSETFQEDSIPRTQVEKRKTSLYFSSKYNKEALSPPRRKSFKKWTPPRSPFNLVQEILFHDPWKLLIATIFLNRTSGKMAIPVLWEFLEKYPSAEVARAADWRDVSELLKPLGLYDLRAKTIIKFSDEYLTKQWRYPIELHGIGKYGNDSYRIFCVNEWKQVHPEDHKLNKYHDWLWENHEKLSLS
UniProt O95243: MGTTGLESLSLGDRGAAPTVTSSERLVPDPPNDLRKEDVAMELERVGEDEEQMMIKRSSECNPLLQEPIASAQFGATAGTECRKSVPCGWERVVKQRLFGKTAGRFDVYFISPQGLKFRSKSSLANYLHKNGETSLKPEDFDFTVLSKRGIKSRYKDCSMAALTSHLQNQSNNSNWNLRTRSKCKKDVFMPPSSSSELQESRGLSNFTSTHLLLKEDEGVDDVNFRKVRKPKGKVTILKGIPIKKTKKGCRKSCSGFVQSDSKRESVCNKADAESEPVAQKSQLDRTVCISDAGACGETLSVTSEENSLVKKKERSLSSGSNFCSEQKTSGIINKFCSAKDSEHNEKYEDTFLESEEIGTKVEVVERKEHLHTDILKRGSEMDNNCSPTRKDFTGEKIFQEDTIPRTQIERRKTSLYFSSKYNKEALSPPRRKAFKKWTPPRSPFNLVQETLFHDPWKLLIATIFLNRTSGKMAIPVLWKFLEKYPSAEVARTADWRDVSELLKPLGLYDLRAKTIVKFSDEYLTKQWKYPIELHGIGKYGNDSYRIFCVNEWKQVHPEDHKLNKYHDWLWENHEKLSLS
6HIS-TF-UB-hMBD4 mutant 2 (MBD and intervening region, amino acid 1-408): residues 1-408 of O95243
6HIS-TF-UB-hMBD4 mutant 4 (intervening region and the downstream interaction region, 156-455): residues 156-455 of O95243

Experiment [1] deals with GFP-mMBD4, GFP epitope-tagged mouse MBD4 (mouse) (UniProt Q9Z2D7). The experiment can be described thus: co-IP; ectopic proteins in HEK293T; nuclear extract without MNase (no chromatin digestion); GFP beads (ChromoTek), 2 h at 4°C; Western blot.
Experiment [2] deals with 6HIS-TF-UB-hMBD4 mutant 4 (intervening region and the downstream interaction region, 156-455) (human) (UniProt O95243). The experiment can be described thus: pull-down; purified 6HIS-TF-UB hMBD4 mutants pre-incubated with Ni-NTA agarose; mixed 1 h at 4°C with nuclear lysate (without chromatin digestion) of 293T cells transfected with FLAG-UHRF1 or GFP-Mlh1; RIPA washes; Western blot (6HIS IP); only the target purified.

Experiment [3] has as its target 6HIS-TF-UB-hMBD4 mutant 2 (MBD and intervening region, amino acid 1-408) (human) (UniProt O95243). The description is as above.
Experiment [4] concerns the target FLAG-hMBD4 (SF-TAP-hMBD4), human full-length MBD4 (human) (UniProt O95243). The experiment can be described thus: co-IP; ectopic proteins in HEK293T; MNase-treated nuclear extract (300 mM NaCl); anti-FLAG sepharose beads, 2 h at 4°C; Western blot.

Results are given in words; binding and its absence hold for the method and conditions named. In cells and extracts the contact can be indirect. Some results given as binding are weak or reduced against the parent protein; the word gives no strength. For some of these results: Sequences can lack the tags named with a protein.

B1: FLAG-UHRF1, FLAG epitope-tagged human UHRF1 (protein, UniProt Q96T88 1-793)
chain: MWIQVRTMDGRQTHTVDSLSRLTKVEELRRKIQELFHVEPGLQRLFYRGKQMEDGHTLFDYEVRLNDTIQLLVRQSLVLPHSTKERDSELSDTDSGCCLGQSESDKSSTHGEAAAETDSRPADEDMWDETELGLYKVNEYVDARDTNMGAWFEAQVVRVTRKAPSRDEPCSSTSRPALEEDVIYHVKYDDYPENGVVQMNSRDVRARARTIIKWQDLEVGQVVMLNYNPDNPKERGFWYDAEISRKRETRTARELYANVVLGDDSLNDCRIIFVDEVFKIERPGEGSPMVDNPMRRKSGPSCKHCKDDVNRLCRVCACHLCGGRQDPDKQLMCDECDMAFHIYCLDPPLSSVPSEDEWYCPECRNDASEVVLAGERLRESKKKAKMASATSSSQRDWGKGMACVGRTKECTIVPSNHYGPIPGIPVGTMWRFRVQVSESGVHRPHVAGIHGRSNDGAYSLVLAGGYEDDVDHGNFFTYTGSGGRDLSGNKRTAEQSCDQKLTNTNRALALNCFAPINDQEGAEAKDWRSGKPVRVVRNVKGGKNSKYAPAEGNRYDGIYKVVKYWPEKGKSGFLVWRYLLRRDDDEPGPWTKEGKDRIKKLGLTMQYPEGYLEALANREREKENSKREEEEQQEGGFASPRTGKGKWKRKSAGGGPSRAGSPRRTSKKTKVEPYSLTAQQSSLIREDKSNAKLWNEVLASLKDRPASGSPFQLFLSKVEETFQCICCQELVFRPITTVCQHNVCKDCLDRSFRAQVFSCPACRYDLGRSYAMQVNQPLQTVLNQLFPGYGNGR
Turning to B1, the binding entry in experiment [1], in experiment [2] and in experiment [3] was “binds” throughout.

B2: mouse version of UHRF1 (ectopic) (protein, UniProt Q8VDF2 1-782)
chain: MWIQVRTMDGKETHTVNSLSRLTKVQELRKKIEEVFHVEPQLQRLFYRGKQMEDGHTLFDYDVRLNDTIQLLVRQSLALPLSTKERDSELSDSDSGYGVGHSESDKSSTHGEGAAEADDKTVWEDTDLGLYKVNEYVDVRDNIFGAWFEAQVVQVQKRALSEDEPCSSSAVKTSEDDIMYHVKYDDYPEHGVDIVKAKNVRARARTVIPWENLEVGQVVMANYNVDYPRKRGFWYDVEICRKRQTRTARELYGNIRLLNDSQLNNCRIMFVDEVLMIELPKERRPLIASPSQPPPALRNTGKSGPSCRFCKDDENKPCRKCACHVCGGREAPEKQLLCDECDMAFHLYCLKPPLTSVPPEPEWYCPSCRTDSSEVVQAGEKLKESKKKAKMASATSSSRRDWGKGMACVGRTTECTIVPANHFGPIPGVPVGTMWRFRVQVSESGVHRPHVAGIHGRSNDGAYSLVLAGGYEDDVDNGNYFTYTGSGGRDLSGNKRTAGQSSDQKLTNNNRALALNCHSPINEKGAEAEDWRQGKPVRVVRNMKGGKHSKYAPAEGNRYDGIYKVVKYWPERGKSGFLVWRYLLRRDDTEPEPWTREGKDRTRQLGLTMQYPEGYLEALANKEKSRKRPAKALEQGPSSSKTGKSKQKSTGPTLSSPRASKKSKLEPYTLSEQQANLIKEDKGNAKLWDDVLTSLQDGPYQIFLSKVKEAFQCICCQELVFRPVTTVCQHNVCKDCLDRSFRAQVFSCPACRFELDHSSPTRVNQPLQTILNQLFPGYGSGR
In the case of B2, the binding entry in experiment [4] was “binds”.
